Source: PubChem BioAssay (Tox21)
The shares of active, inactive and inconclusive entries below differ from those in the screen. A call without a number means that no potency is given here. For some of these results: Where the call is inconclusive, the potency comes from a doubtful curve fit. Active and inactive are the calls of the source. Calls come from the whole dose curve; as a rule, active = well fitted activation curve with a large enough effect in the repeat runs; inconclusive = weak or mixed curves; inactive = flat fitted curve, though single readings scatter.

Tests used:
[1] = A CellTox Green Cytotoxicity Assay to monitor cytotoxicity in HepG2 cells - 0 hour (AID 1224882); note: potency is the fitted concentration of half-maximal effect; nearly all actives have a fitted effect of over 35% in size
Summary of the method: (§1)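 Nonlytic assay: viable cells exclude the dye, so fluorescence scales with cell death. HepG2 at 600 cells/well, compounds added after 5 h, signal read across 40 h.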

[2] = A CellTox Green Cytotoxicity Assay to monitor cytotoxicity in HEK293 cells - 8 hour (AID 1224884); note: potency is the fitted concentration of half-maximal effect; nearly all actives have a fitted effect of over 35% in size
Summary of the method: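 Seeding of HEK293 cells together with cytotoxicity dye preceded a 5 h incubation at 37 C/5% CO2. Test compounds in DMSO were then added and fluorescence monitored across 40 h.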

[3] = A CellTox Green Cytotoxicity Assay to monitor cytotoxicity in HepG2 cells - 32 hour (AID 1224883); note: nearly all actives have a fitted effect of over 50% in size
Summary of the method: as §1
Tags give direction and shape of the fitted curve.

In the case of CC1=CC[C@H](C(C)C)C=C1, the Potency [1] is reported as inconclusive: 49 µM [activator, partial curve, poor fit] and the Potency [2] is reported as inconclusive: 38.9 µM [activator, partial curve, poor fit].

In the case of CCOc1cccc(N)c1, the Potency [3] is reported as “inactive”.

For CC1(C)S[C@@H]2[C@H](NC(=O)C(C(=O)O)c3ccccc3)C(=O)N2[C@H]1C(=O)O (some centres undefined), the Potency [3] was “inactive”.
